According to patent US20130347134A1, “TRANSGENIC VON WILLEBRAND FACTOR ANIMALS AND USES THEREOF” (priority 2012, published 2013):

Columns and labels:
[1] = target: human platelet glycoprotein Ib alpha (GPIb α) on human platelets (human) (UniProt P07359); assay: translocation of human platelets on immobilized plasma VWF in flow
[2] = target: murine platelet glycoprotein Ib alpha (GPIb α) on mouse platelets (mouse) (UniProt O35930); assay: cell-based or functional assay
UniProt O35930, sequence (O35930 17-734): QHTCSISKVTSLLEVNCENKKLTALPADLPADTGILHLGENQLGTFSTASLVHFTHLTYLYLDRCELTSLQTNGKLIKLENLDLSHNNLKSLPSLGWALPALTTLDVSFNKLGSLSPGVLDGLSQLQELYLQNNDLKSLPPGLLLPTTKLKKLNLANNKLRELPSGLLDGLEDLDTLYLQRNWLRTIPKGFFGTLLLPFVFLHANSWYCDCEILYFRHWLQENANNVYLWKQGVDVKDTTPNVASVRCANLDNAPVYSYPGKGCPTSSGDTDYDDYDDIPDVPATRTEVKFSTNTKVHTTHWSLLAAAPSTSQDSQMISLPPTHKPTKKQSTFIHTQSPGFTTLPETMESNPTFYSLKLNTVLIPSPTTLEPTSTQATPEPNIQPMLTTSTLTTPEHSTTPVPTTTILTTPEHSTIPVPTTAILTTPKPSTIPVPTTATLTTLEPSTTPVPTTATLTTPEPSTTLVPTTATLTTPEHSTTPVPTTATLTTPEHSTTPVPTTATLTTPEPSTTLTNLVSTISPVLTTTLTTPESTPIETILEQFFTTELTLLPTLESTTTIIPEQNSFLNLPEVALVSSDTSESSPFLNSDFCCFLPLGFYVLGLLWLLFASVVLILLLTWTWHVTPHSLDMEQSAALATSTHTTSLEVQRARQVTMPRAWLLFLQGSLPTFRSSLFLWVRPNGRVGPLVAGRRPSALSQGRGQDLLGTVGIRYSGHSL

translocation velocity of human platelets [1] | tail bleeding time of homozygous VWF-HA1 mice [2] | Substance
3.2 µm/sec | – | human plasma von Willebrand factor (VWF) (a stretch of the chain, sequence left out) (ligand)
– | > 10 min | mouse plasma VWF containing the majority of the human A1 domain (amino acids 1240P through 1481G of human VWF) (a stretch of the chain, sequence left out) (ligand)
